{"source": "the supplement of paper PMC10369915", "binders": {"B1": {"name": "CTSC_Y352_YF (peptide)", "chain": "FVGGFYGGCNE"}, "B2": {"name": "CYCS_Y68_M66L (peptide)", "chain": "DTLLEYLENPK"}, "B3": {"name": "CUX2_Y1470 (peptide)", "chain": "LNNIIYRVERA"}, "B4": {"name": "CXXC1_Y218 (peptide)", "chain": "RESYKYFPSSL"}, "B5": {"name": "CTNND2_Y503_YF (peptide)", "chain": "NFADPYRQLQF"}, "B6": {"name": "CWC22_Y797 (peptide)", "chain": "SERNNYSRVAN"}, "B7": {"name": "CTSK_Y121 (peptide)", "chain": "PDSVDYRKKGY"}, "B8": {"name": "CXCL11_Y52 (peptide)", "chain": "KASIMYPSNNC"}, "B9": {"name": "CTSC_Y352_Y347C (peptide)", "chain": "CVGGFYGGCNE"}, "B10": {"name": "CYBA_Y87_R90W_YF (peptide)", "chain": "PFTRNYFVWAV"}, "B11": {"name": "CTNND2_Y1154_P1159S_YF (peptide)", "chain": "PSRKDYETFQS"}, "B12": {"name": "CTSC_Y347 (peptide)", "chain": "SSEYHYVGGFY"}, "B13": {"name": "CTNND2_Y503 (peptide)", "chain": "NYADPYRQLQY"}, "B14": {"name": "CXCL11_Y52_N55S (peptide)", "chain": "KASIMYPSSNC"}, "B15": {"name": "CTRB2_Y246_A250T (peptide)", "chain": "TTPAVYARVTK"}, "B16": {"name": "CTSC_Y347_Y347C_YF (peptide)", "chain": "SSEFHCVGGFF"}, "B17": {"name": "CXADR_Y318_S323R_YF (peptide)", "chain": "FSKTQYNQVPR"}, "B18": {"name": "CYCS_Y68 (peptide)", "chain": "DTLMEYLENPK"}}, "assay_in_all_cases": "enrichment score (SH2-bound / input frequency) (ratio); bacterial display of known human phosphotyrosine sites (pTyr-Var adds point mutants) read by sequencing; higher = stronger binding; tyrosines were phosphorylated by kinases first", "conditions_in_all_cases": "peptide library: pTyr-Var", "key": {"[1]": {"target": "SHP2 C-SH2 domain E139D"}, "[2]": {"target": "SHP2 C-SH2 domain wild-type"}, "[3]": {"target": "SHP2 N-SH2 domain L43F"}, "[4]": {"target": "SHP2 N-SH2 domain T42A"}, "[5]": {"target": "SHP2 N-SH2 domain T52S"}, "[6]": {"target": "SHP2 N-SH2 domain wild-type"}}, "note": "Some of the results follow. Rule as the data show it: active = 3.2 or more and inactive = the rest. Most of these values are background signal.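 Also: displayed peptides selected on beads carrying the immobilized SH2 domain, with library peptides lacking any tyrosine serving as negative controls.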", "data": [{"binder": "B1", "values": [{"measurement": "enrichment score", "setting": "[1]", "result": "inactive: 1.11"}, {"measurement": "enrichment score", "setting": "[2]", "result": "inactive: 1.3"}, {"measurement": "enrichment score", "setting": "[3]", "result": "inactive: 0.962"}, {"measurement": "enrichment score", "setting": "[4]", "result": "inactive: 0.943"}, {"measurement": "enrichment score", "setting": "[5]", "result": "inactive: 0.802"}, {"measurement": "enrichment score", "setting": "[6]", "result": "inactive: 1.17"}]}, {"binder": "B2", "values": [{"measurement": "enrichment score", "setting": "[1]", "result": "inactive: 0.893"}, {"measurement": "enrichment score", "setting": "[2]", "result": "inactive: 0.922"}, {"measurement": "enrichment score", "setting": "[3]", "result": "inactive: 1.2"}, {"measurement": "enrichment score", "setting": "[4]", "result": "inactive: 0.681"}, {"measurement": "enrichment score", "setting": "[5]", "result": "inactive: 0.948"}, {"measurement": "enrichment score", "setting": "[6]", "result": "inactive: 1.14"}]}, {"binder": "B3", "values": [{"measurement": "enrichment score", "setting": "[1]", "result": "inactive: 1.07"}, {"measurement": "enrichment score", "setting": "[2]", "result": "inactive: 1.19"}, {"measurement": "enrichment score", "setting": "[3]", "result": "inactive: 0.967"}, {"measurement": "enrichment score", "setting": "[4]", "result": "inactive: 0.939"}, {"measurement": "enrichment score", "setting": "[5]", "result": "inactive: 0.745"}, {"measurement": "enrichment score", "setting": "[6]", "result": "inactive: 0.569"}]}, {"binder": "B4", "values": [{"measurement": "enrichment score", "setting": "[1]", "result": "inactive: 1.05"}, {"measurement": "enrichment score", "setting": "[2]", "result": "inactive: 0.756"}, {"measurement": "enrichment score", "setting": "[3]", "result": "inactive: 1.06"}, {"measurement": "enrichment score", "setting": "[4]", "result": "inactive: 1.17"}, {"measurement": "enrichment score", "setting": "[5]", "result": "inactive: 0.983"}, {"measurement": "enrichment score", "setting": "[6]", "result": "inactive: 1.26"}]}, {"binder": "B5", "values": [{"measurement": "enrichment score", "setting": "[1]", "result": "inactive: 0.813"}, {"measurement": "enrichment score", "setting": "[2]", "result": "inactive: 1.03"}, {"measurement": "enrichment score", "setting": "[3]", "result": "inactive: 1.99"}, {"measurement": "enrichment score", "setting": "[4]", "result": "active: 3.85"}, {"measurement": "enrichment score", "setting": "[5]", "result": "inactive: 2.24"}, {"measurement": "enrichment score", "setting": "[6]", "result": "inactive: 0.877"}]}, {"binder": "B6", "values": [{"measurement": "enrichment score", "setting": "[1]", "result": "inactive: 0.469"}, {"measurement": "enrichment score", "setting": "[2]", "result": "inactive: 1.15"}, {"measurement": "enrichment score", "setting": "[3]", "result": "inactive: 0.429"}, {"measurement": "enrichment score", "setting": "[4]", "result": "inactive: 0.488"}, {"measurement": "enrichment score", "setting": "[5]", "result": "inactive: 0.468"}, {"measurement": "enrichment score", "setting": "[6]", "result": "inactive: 0.527"}]}, {"binder": "B7", "values": [{"measurement": "enrichment score", "setting": "[1]", "result": "inactive: 0.645"}, {"measurement": "enrichment score", "setting": "[2]", "result": "inactive: 0.455"}, {"measurement": "enrichment score", "setting": "[3]", "result": "inactive: 0.542"}, {"measurement": "enrichment score", "setting": "[4]", "result": "inactive: 0.475"}, {"measurement": "enrichment score", "setting": "[5]", "result": "inactive: 0.318"}, {"measurement": "enrichment score", "setting": "[6]", "result": "inactive: 0.667"}]}, {"binder": "B8", "values": [{"measurement": "enrichment score", "setting": "[1]", "result": "inactive: 0.667"}, {"measurement": "enrichment score", "setting": "[2]", "result": "inactive: 0.737"}, {"measurement": "enrichment score", "setting": "[3]", "result": "inactive: 0.755"}, {"measurement": "enrichment score", "setting": "[4]", "result": "inactive: 0.535"}, {"measurement": "enrichment score", "setting": "[5]", "result": "inactive: 0.504"}, {"measurement": "enrichment score", "setting": "[6]", "result": "inactive: 0.755"}]}, {"binder": "B9", "values": [{"measurement": "enrichment score", "setting": "[1]", "result": "inactive: 3.1"}, {"measurement": "enrichment score", "setting": "[2]", "result": "inactive: 2.56"}, {"measurement": "enrichment score", "setting": "[3]", "result": "inactive: 2.54"}, {"measurement": "enrichment score", "setting": "[4]", "result": "inactive: 2.38"}, {"measurement": "enrichment score", "setting": "[5]", "result": "inactive: 2.73"}, {"measurement": "enrichment score", "setting": "[6]", "result": "inactive: 2.14"}]}, {"binder": "B10", "values": [{"measurement": "enrichment score", "setting": "[1]", "result": "inactive: 1.29"}, {"measurement": "enrichment score", "setting": "[2]", "result": "inactive: 1.57"}, {"measurement": "enrichment score", "setting": "[3]", "result": "inactive: 1.72"}, {"measurement": "enrichment score", "setting": "[4]", "result": "inactive: 1.36"}, {"measurement": "enrichment score", "setting": "[5]", "result": "inactive: 1.96"}, {"measurement": "enrichment score", "setting": "[6]", "result": "inactive: 1.55"}]}, {"binder": "B11", "values": [{"measurement": "enrichment score", "setting": "[1]", "result": "inactive: 0.433"}, {"measurement": "enrichment score", "setting": "[2]", "result": "inactive: 0.373"}, {"measurement": "enrichment score", "setting": "[3]", "result": "inactive: 0.562"}, {"measurement": "enrichment score", "setting": "[4]", "result": "inactive: 0.367"}, {"measurement": "enrichment score", "setting": "[5]", "result": "inactive: 0.531"}, {"measurement": "enrichment score", "setting": "[6]", "result": "inactive: 0.307"}]}, {"binder": "B12", "values": [{"measurement": "enrichment score", "setting": "[1]", "result": "inactive: 1.1"}, {"measurement": "enrichment score", "setting": "[2]", "result": "inactive: 2.3"}, {"measurement": "enrichment score", "setting": "[3]", "result": "inactive: 0.964"}, {"measurement": "enrichment score", "setting": "[4]", "result": "inactive: 1.57"}, {"measurement": "enrichment score", "setting": "[5]", "result": "inactive: 0.907"}, {"measurement": "enrichment score", "setting": "[6]", "result": "inactive: 0.854"}]}, {"binder": "B13", "values": [{"measurement": "enrichment score", "setting": "[1]", "result": "inactive: 0.838"}, {"measurement": "enrichment score", "setting": "[2]", "result": "inactive: 0.992"}, {"measurement": "enrichment score", "setting": "[3]", "result": "inactive: 0.858"}, {"measurement": "enrichment score", "setting": "[4]", "result": "inactive: 0.872"}, {"measurement": "enrichment score", "setting": "[5]", "result": "inactive: 0.742"}, {"measurement": "enrichment score", "setting": "[6]", "result": "inactive: 0.828"}]}, {"binder": "B14", "values": [{"measurement": "enrichment score", "setting": "[1]", "result": "inactive: 0.651"}, {"measurement": "enrichment score", "setting": "[2]", "result": "inactive: 0.523"}, {"measurement": "enrichment score", "setting": "[3]", "result": "inactive: 0.634"}, {"measurement": "enrichment score", "setting": "[4]", "result": "inactive: 0.536"}, {"measurement": "enrichment score", "setting": "[5]", "result": "inactive: 0.59"}, {"measurement": "enrichment score", "setting": "[6]", "result": "inactive: 0.733"}]}, {"binder": "B15", "values": [{"measurement": "enrichment score", "setting": "[1]", "result": "inactive: 0.504"}, {"measurement": "enrichment score", "setting": "[2]", "result": "inactive: 1.31"}, {"measurement": "enrichment score", "setting": "[3]", "result": "inactive: 0.724"}, {"measurement": "enrichment score", "setting": "[4]", "result": "inactive: 0.621"}, {"measurement": "enrichment score", "setting": "[5]", "result": "inactive: 0.887"}, {"measurement": "enrichment score", "setting": "[6]", "result": "inactive: 0.481"}]}, {"binder": "B16", "values": [{"measurement": "enrichment score", "setting": "[1]", "result": "inactive: 0.76"}, {"measurement": "enrichment score", "setting": "[2]", "result": "inactive: 0.837"}, {"measurement": "enrichment score", "setting": "[3]", "result": "inactive: 0.574"}, {"measurement": "enrichment score", "setting": "[4]", "result": "inactive: 0.682"}, {"measurement": "enrichment score", "setting": "[5]", "result": "inactive: 0.503"}, {"measurement": "enrichment score", "setting": "[6]", "result": "inactive: 0.923"}]}, {"binder": "B17", "values": [{"measurement": "enrichment score", "setting": "[1]", "result": "inactive: 0.765"}, {"measurement": "enrichment score", "setting": "[2]", "result": "inactive: 0.655"}, {"measurement": "enrichment score", "setting": "[3]", "result": "inactive: 0.591"}, {"measurement": "enrichment score", "setting": "[4]", "result": "inactive: 0.536"}, {"measurement": "enrichment score", "setting": "[5]", "result": "inactive: 0.742"}, {"measurement": "enrichment score", "setting": "[6]", "result": "inactive: 0.734"}]}, {"binder": "B18", "values": [{"measurement": "enrichment score", "setting": "[1]", "result": "inactive: 1.04"}, {"measurement": "enrichment score", "setting": "[2]", "result": "inactive: 0.907"}, {"measurement": "enrichment score", "setting": "[3]", "result": "inactive: 1.02"}, {"measurement": "enrichment score", "setting": "[4]", "result": "inactive: 0.884"}, {"measurement": "enrichment score", "setting": "[5]", "result": "inactive: 0.972"}, {"measurement": "enrichment score", "setting": "[6]", "result": "inactive: 1.17"}]}]}
